Some of the results follow. Most values come without repeats; read them as rough.
Assays:
Test in all cases: cell count relative to DMSO control; melanoma cells; higher = more viable cells
Conditions in all cases: library dose: standard library concentration; 72 h
[1] = test system: G361
[2] = test system: IPC-298
[3] = test system: IST-MEL1
[4] = test system: LB2518-MEL
[5] = test system: LOXIMVI
[6] = test system: MEL-HO
[7] = test system: MZ2-MEL
[8] = test system: MeWo
[9] = test system: RPMI7951
[10] = test system: RVH-421
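Also: cells treated in 1,536-well plates, then fixed and DAPI-stained, with nuclei counted from automated high-throughput microscope images.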

Compound	cell count [1]	cell count [2]	cell count [3]	cell count [4]	cell count [5]	cell count [6]	cell count [7]	cell count [8]	cell count [9]	cell count [10]
N#CC[C@H](C1CCCC1)n1cc(-c2ncnc3[nH]ccc23)cn1 [ruxolitinib] + Oc1cc(-c2nc(-c3ccccc3)[nH]c2-c2ccncc2)ccc1Cl [L779450] (first compound 5 µM, partner dose 1 µM)	67.7%	99.4%	91%	123%	85.9%	87%	113%	103%	90.1%	75.6%
Cc1cc(Nc2cc(N3CCN(C)CC3)nc(Sc3ccc(NC(=O)C4CC4)cc3)n2)n[nH]1 [Tozasertib] + NC1(c2ccc(-c3nc4ccn5c(=O)[nH]nc5c4cc3-c3ccccc3)cc2)CCC1 [MK2206] (first compound 0.03 µM, partner dose 2 µM)	71%	91%	82.2%	75.2%	85.5%	72.6%	70.3%	65.9%	52.4%	74.6%
CC[C@]1(O)C[C@H]2CN(CCc3c([nH]c4ccccc34)[C@@](C(=O)OC)(c3cc4c(cc3OC)N(C=O)[C@H]3[C@@](O)(C(=O)OC)[C@H](OC(C)=O)[C@]5(CC)C=CCN6CC[C@]43[C@@H]65)C2)C1 [vincristine] + NC1(c2ccc(-c3nc4ccn5c(=O)[nH]nc5c4cc3-c3ccccc3)cc2)CCC1 [MK2206] (first compound 0.0005 µM, partner dose 2 µM)	98%	112%	69.3%	89.7%	61.3%	68.1%	113%	25.1%	38.5%	48.5%
N#CC[C@H](C1CCCC1)n1cc(-c2ncnc3[nH]ccc23)cn1 [ruxolitinib] + CC(=O)O[C@@]12CO[C@@H]1C[C@H](O)[C@@]1(C)C(=O)[C@H](O)C3=C(C)[C@@H](OC(=O)[C@H](O)[C@@H](NC(=O)OC(C)(C)C)c4ccccc4)C[C@@](O)([C@@H](OC(=O)c4ccccc4)[C@H]21)C3(C)C [Docetaxel] (first compound 5 µM, partner dose 0.0005 µM)	12.7%	35.1%	39.9%	38.7%	48.9%	42.7%	34.2%	20.2%	28.7%	59%
Cc1cc(Nc2cc(N3CCN(C)CC3)nc(Sc3ccc(NC(=O)C4CC4)cc3)n2)n[nH]1 [Tozasertib] + CC1(C)CCC(c2ccc(Cl)cc2)=C(CN2CCN(c3ccc(C(=O)NS(=O)(=O)c4ccc(N[C@H](CCN5CCOCC5)CSc5ccccc5)c(S(=O)(=O)C(F)(F)F)c4)cc3)CC2)C1 [ABT263] (first compound 0.03 µM, partner dose 2 µM)	72.8%	88.2%	69.5%	61%	30.5%	49%	48.7%	54.9%	15.2%	46.7%
N#CC[C@H](C1CCCC1)n1cc(-c2ncnc3[nH]ccc23)cn1 [ruxolitinib] + Nc1ncn([C@H]2C[C@H](O)[C@@H](CO)O2)c(=O)n1 [decitabine] (first compound 5 µM, partner dose 0.5 µM)	73.7%	60.6%	61.8%	71.8%	85.1%	62%	70.3%	60%	67.2%	74.7%
N#CC[C@H](C1CCCC1)n1cc(-c2ncnc3[nH]ccc23)cn1 [ruxolitinib] + O=C(Nc1ccccc1)c1cc([N+](=O)[O-])ccc1Cl [GW9662] (first compound 5 µM, partner dose 10 µM)	55%	84.6%	93.4%	73.6%	78.9%	65.3%	75.2%	62.4%	65.5%	63.9%
N#CC[C@H](C1CCCC1)n1cc(-c2ncnc3[nH]ccc23)cn1 [ruxolitinib] + CCCS(=O)(=O)Nc1ccc(F)c(C(=O)c2c[nH]c3ncc(Cl)cc23)c1F [PLX4720] (first compound 5 µM, partner dose 0.4 µM)	83.5%	89.4%	99.8%	143%	157%	82.2%	75.4%	83.6%	103%	73.7%
Cc1cc(Nc2cc(N3CCN(C)CC3)nc(Sc3ccc(NC(=O)C4CC4)cc3)n2)n[nH]1 [Tozasertib] + CN(c1ncccc1CNc1nc(Nc2ccc3c(c2)CC(=O)N3)ncc1C(F)(F)F)S(C)(=O)=O [PF562271] (first compound 0.03 µM, partner dose 0.4 µM)	75%	78.1%	72.9%	71.7%	82%	82.2%	47.2%	99.5%	43.4%	19.6%
N#CC[C@H](C1CCCC1)n1cc(-c2ncnc3[nH]ccc23)cn1 [ruxolitinib] + Cc1cc(N2CCOCC2)cc2[nH]c(-c3c(NC[C@@H](O)c4cccc(Cl)c4)cc[nH]c3=O)nc12 [BMS536924] (first compound 5 µM, partner dose 1 µM)	86.4%	107%	120%	117%	96%	81.7%	118%	73.2%	84.3%	81.7%
N#CC[C@H](C1CCCC1)n1cc(-c2ncnc3[nH]ccc23)cn1 [ruxolitinib] + O=C(CCCCCCC(=O)Nc1ccccc1)NO [vorinostat] (first compound 5 µM, partner dose 0.4 µM)	70.8%	104%	82.8%	99%	94.1%	89.6%	86.6%	78.4%	93.7%	80.2%
CC[C@]1(O)C[C@H]2CN(CCc3c([nH]c4ccccc34)[C@@](C(=O)OC)(c3cc4c(cc3OC)N(C=O)[C@H]3[C@@](O)(C(=O)OC)[C@H](OC(C)=O)[C@]5(CC)C=CCN6CC[C@]43[C@@H]65)C2)C1 [vincristine] + C[C@@H]1CCN(C(=O)CC#N)C[C@@H]1N(C)c1ncnc2[nH]ccc12 [CP690550] (first compound 0.0005 µM, partner dose 5 µM)	96.8%	108%	80.8%	87.4%	59.9%	96.3%	81.1%	46.7%	52%	60.2%
N#CC[C@H](C1CCCC1)n1cc(-c2ncnc3[nH]ccc23)cn1 [ruxolitinib] + Cn1cnc2c(F)c(Nc3ccc(Br)cc3Cl)c(C(=O)NOCCO)cc21 [selumetinib] (first compound 5 µM, partner dose 0.075 µM)	80%	49.8%	86.1%	55.5%	191%	71.2%	49.1%	64.5%	116%	85.2%
Cc1cc(Nc2cc(N3CCN(C)CC3)nc(Sc3ccc(NC(=O)C4CC4)cc3)n2)n[nH]1 [Tozasertib] + CC(=O)O[C@@]12CO[C@@H]1C[C@H](O)[C@@]1(C)C(=O)[C@H](O)C3=C(C)[C@@H](OC(=O)[C@H](O)[C@@H](NC(=O)OC(C)(C)C)c4ccccc4)C[C@@](O)([C@@H](OC(=O)c4ccccc4)[C@H]21)C3(C)C [Docetaxel] (first compound 0.03 µM, partner dose 0.0005 µM)	13%	42.3%	50.6%	54.4%	48.8%	42%	44.8%	26.5%	29.7%	62.9%
CC[C@]1(O)C[C@H]2CN(CCc3c([nH]c4ccccc34)[C@@](C(=O)OC)(c3cc4c(cc3OC)N(C=O)[C@H]3[C@@](O)(C(=O)OC)[C@H](OC(C)=O)[C@]5(CC)C=CCN6CC[C@]43[C@@H]65)C2)C1 [vincristine] + O=C(O)c1ccc(-c2c[nH]c3ncc(-c4ccccc4)cc23)cc1C1CCCC1 [GSK650394] (first compound 0.0005 µM, partner dose 0.8 µM)	65.6%	94.8%	30.1%	94%	88.8%	66.2%	94.3%	96.6%	55.9%	29.1%
CC[C@]1(O)C[C@H]2CN(CCc3c([nH]c4ccccc34)[C@@](C(=O)OC)(c3cc4c(cc3OC)N(C=O)[C@H]3[C@@](O)(C(=O)OC)[C@H](OC(C)=O)[C@]5(CC)C=CCN6CC[C@]43[C@@H]65)C2)C1 [vincristine] + CS(=O)(=O)CCNCc1ccc(-c2ccc3ncnc(Nc4ccc(OCc5cccc(F)c5)c(Cl)c4)c3c2)o1 [lapatinib] (first compound 0.0005 µM, partner dose 4 µM)	6.64%	26%	28.6%	33.4%	55.3%	29.3%	35.9%	29.5%	15.4%	37.3%
Cc1cc(Nc2cc(N3CCN(C)CC3)nc(Sc3ccc(NC(=O)C4CC4)cc3)n2)n[nH]1 [Tozasertib] + CN(C)S(=O)(=O)c1ccc2c(c1)/C(=C/c1cc3c([nH]1)CCCC3)C(=O)N2 [SU6656] (first compound 0.03 µM, partner dose 2 µM)	65.6%	88.7%	77.1%	63.8%	82.8%	81.8%	67.5%	82.1%	45.9%	69.8%
N#CC[C@H](C1CCCC1)n1cc(-c2ncnc3[nH]ccc23)cn1 [ruxolitinib] + O=S(=O)(c1ccccc1)N(CC(F)(F)F)c1ccc(C(O)(C(F)(F)F)C(F)(F)F)cc1 [T0901317] (first compound 5 µM, partner dose 7 µM)	79.6%	78.2%	103%	127%	108%	87.3%	109%	77.6%	95%	97.3%
Cc1cc(Nc2cc(N3CCN(C)CC3)nc(Sc3ccc(NC(=O)C4CC4)cc3)n2)n[nH]1 [Tozasertib] + O=C(Nc1ccccc1)c1cc([N+](=O)[O-])ccc1Cl [GW9662] (first compound 0.03 µM, partner dose 10 µM)	65.9%	94.4%	85.4%	84%	72.5%	85.6%	75.5%	65.8%	81.2%	77.6%
